# Among all 52,000 compounds or so, about 1,700 (3.3%) were called active. Rule as the data show it: active = survival mostly below about 52% (no sharp cut-off); inactive = mostly above about 56%. The list shows a part of the results.
# Test system: Wild type
# Test: growth inhibition of S. aureus wild type versus tarO mutant, primary screen, teichoic acid synthesis inhibitors, RN4220, OD600 (AID 463173)
# Settings: S. aureus RN4220 wild type/DeltatarO growth, OD600, 18 h, active compounds read low, screened at 18.75 µg/mL (by protocol)
row,SMILES,survival
1,COc1ccc(C(c2c(O)cc(C)n(Cc3ccco3)c2=O)N2CCCCC2)cc1OC (stereo not given),inactive: 92%
2,Cc1ccc(SCC(=O)Nc2ccccc2)cc1,inactive: 125%
3,CCOc1cccc(CC(=O)N2CCc3c([nH]c4ccccc34)C2c2ccc(Cl)cc2)c1OCC (stereo not given),inactive: 73%
4,c1ccc(-n2c(SCCN3CCOCC3)nnc2-c2ccncc2)cc1,inactive: 102%
5,Nc1nc(CN2CCCCC2)cs1,inactive: 119%
6,COc1cc(Cl)c(C)cc1NC(=O)c1ccc2c(Cl)c3c(nc2c1)CCC3,inactive: 83%
7,CCC1CCCCN1C(=O)c1ccccc1F (stereo not given),inactive: 101%
8,Cc1ccc(OC(=O)C23CC4CC(CC(C4)C2)C3)cn1,inactive: 122%
9,CCc1ccc(Oc2c(C(F)(F)F)oc3c(CN4CCN(C)CC4)c(O)ccc3c2=O)cc1,inactive: 131%
10,O=C(Cn1cc(SCc2cccc(Cl)c2)c2ccccc21)N1CCCCCC1,inactive: 85%
11,CCOc1ccccc1NC(=O)c1c(NC(=O)c2ccccc2)sc2c1CCCC2,inactive: 74%
12,CCOc1ccccc1CNC(=O)c1cnc2sc(N3CCCCCC3)nn2c1=O,inactive: 73%
13,COc1ccc(-n2ccn(CC(=O)NCCc3ccccc3)c(=O)c2=O)cc1OC,inactive: 116%
14,O=C(NCCc1csc2nc(-c3ccc(F)cc3)nn12)c1cccc(C(F)(F)F)c1,inactive: 85%
15,COc1cccc(CNC(=O)Cn2ncc3c4ccccc4n(Cc4ccccc4)c3c2=O)c1,inactive: 93%
16,COc1ccccc1CN(Cc1ccco1)c1cnc(S(C)(=O)=O)nc1C(=O)Nc1cc(C)ccc1C,inactive: 83%
17,CCc1ccc(S(=O)(=O)NCCc2csc3nc(-c4ccccc4)nn23)s1,inactive: 129%
18,CC(C)(C)c1ccc(-c2nc3cc(NC(=O)c4cccc(Br)c4)ccc3o2)cc1,inactive: 91%
19,COc1cccc(C(=O)NCc2nc(-c3ccccc3)no2)c1OC,inactive: 89%
20,Cn1c(=O)c2c(ncn2CC(=O)Nc2cccc(C(F)(F)F)c2)n(C)c1=O,inactive: 73%
21,Cc1cccc(NC(=O)CCc2c(C)nc3nc(CNC(=O)c4cccc(F)c4)nn3c2C)c1,inactive: 95%
22,CC(=O)Nn1c(C)nc2ccccc2c1=O,inactive: 112%
23,COc1ccc(Cn2c(SCc3ccc(C(=O)NC4CCCC4)cc3)nc3cccnc32)cc1,inactive: 73%

row,SMILES,survival
1,CCN(CC)C1=CC(=O)OC12CCCCC2,inactive: 118%
2,O=C(Cn1c(=O)n(Cc2ccc3c(c2)OCO3)c(=O)c2oc3ccccc3c21)Nc1ccc(F)cc1,inactive: 80%
3,CCOC(=O)C1(C)NC(c2ccc(F)cc2)C2C(=O)N(CC)C(=O)C21 (stereo not given),inactive: 108%
4,COc1ccc(-c2noc(CSc3nnc(-c4ccncc4)n3-c3ccc(C)cc3)n2)cc1OC,inactive: 80%
5,COC(=O)/C(=C\c1c[nH]c2ccccc12)NC(C)=O,inactive: 102%
6,O=C(CSc1nnc2c(n1)[nH]c1ccccc12)Nc1ccccc1,inactive: 104%
7,CCn1cc(CNC(=O)c2cc(-c3ccc(C)c(C)c3)nc3ccccc23)c(C)n1,inactive: 134%
8,CC1CCCCN1C(=O)Cn1c(SCC(=O)N(C)c2ccccc2)nc2ccccc21 (stereo not given),inactive: 53%
9,Cc1ccc(NC(=O)c2ccc(=O)n(CC(=O)Nc3cccc(C)c3)n2)cc1,inactive: 71%
10,COC(=O)c1ccccc1NC(=O)c1cc2nc(-c3ccc(OC)cc3)cc(C(F)(F)F)n2n1,inactive: 67%
11,Cc1ccc(NC(=O)c2ccc(NC(=O)N3CCSc4nc(C)cc(C)c43)cc2)c(Cl)c1,inactive: 131%
12,O=C(Cn1nc2c(cc1=O)CCCC2)Nc1ccccc1C(F)(F)F,inactive: 75%
13,COC(=O)c1cc2c(ccn2-c2ccc(F)cc2)n1CC(=O)N1CCCCC1,inactive: 114%
14,CCOc1ccccc1CNS(=O)(=O)c1ccc(-c2coc(C)n2)cc1,inactive: 70%
15,Cc1cccc(C(c2sc3nc(-c4ccco4)nn3c2O)N2CCN(c3ccccc3)CC2)c1 (stereo not given),inactive: 88%
16,O=C(CSc1n[nH]c(-c2ccccc2Cl)n1)N1CCN(c2ccccc2)CC1,inactive: 87%
17,Cc1ccc(C)c(NC(=O)c2ccc3nc(CCc4ccccc4)oc3c2)c1,inactive: 65%
18,C=CCN1Cc2c(sc3c2CCCC3)N(C(=O)c2ccccc2)C1,inactive: 114%
19,CCCc1ccc(C2Sc3ccccc3NC3=C2C(=O)c2ccccc23)cc1 (stereo not given),inactive: 106%
20,Cc1cc(NC(=O)c2cccs2)cc(-c2nc3cc(Cl)ccc3o2)c1O,inactive: 87%
21,CCOC(=O)CNS(=O)(=O)c1cc(-c2nnc(Nc3cccc(O)c3)c3ccccc23)ccc1C,inactive: 58%
22,CCC(=O)NCc1cc(-c2nn(C)c(=O)c3ccccc23)ccc1OC,inactive: 68%
23,CCn1cc2nc(SCC(=O)Nc3ccc(C)cc3C)n(Cc3ccc(C)cc3)c(=O)c2n1,inactive: 135%

row,SMILES,survival
1,COC(=O)C1CCN(C(=O)c2ccc(NC(C)=O)cc2)CC1,inactive: 104%
2,COc1cc(NC(=O)CCCc2nnc3n(C)c(=O)c4sccc4n23)cc(OC)c1OC,inactive: 93%
3,O=C(CSCc1ccc(F)cc1)NCc1ccc(F)cc1,inactive: 87%
4,Cc1cccc(CC(=O)N2CC(=O)Nc3ccc(F)cc3C2c2ccccc2)c1 (stereo not given),inactive: 81%
5,Cc1ccc(CNC(=O)CSc2c(C(C)C)cnc3c2c(=O)n(C)c(=O)n3C)cc1,inactive: 58%
6,CC(C)c1ccc2nc(SCC(=O)N3CCCC3)c(C#N)cc2c1,inactive: 114%
7,CCC(CC)C(=O)N1CCc2cc(OC)c(OC)cc2C1COc1ccc(F)cc1 (stereo not given),inactive: 75%
8,CCc1ccccc1NC(=O)Nc1ccc2snnc2c1,inactive: 82%
9,CCc1ccc(NS(=O)(=O)c2ccc3[nH]c4c(c3c2)CCCCCC4)cc1,inactive: 82%
10,Cc1cccc(-n2ncc(C(=O)NCc3ccc4c(c3)OCO4)c2C2CCN(C(=O)OC(C)(C)C)CC2)c1,inactive: 77%
11,O=C(CSc1nc(Nc2ccc(F)c(F)c2)c2ccccc2n1)c1ccc(Cl)cc1,inactive: 78%
12,COc1ccc(-c2cccc(NS(=O)(=O)c3ccc(NC(C)=O)cc3)c2)nn1,inactive: 82%
13,CCCCN(C)CCNC(=O)c1cc(-c2ccc(Cl)s2)nc2ccccc12,inactive: 82%
14,CCc1ccc(NC(=O)CN2C(=O)CC(c3ccccc3)Sc3ccccc32)cc1 (stereo not given),inactive: 116%
15,CC(C)(C)OC(=O)N1CCC(c2c(C(=O)NCCN3CCOCC3)cnn2-c2ccc(F)cc2F)CC1,active: -3%
16,CCOc1ccccc1Nc1nc2c(S(=O)(=O)c3ccc(C)cc3)nnn2c2ccsc12,inactive: 87%
17,Cc1ccc(-c2nc3scc(CCNS(=O)(=O)c4ccc(Oc5ccccc5)cc4)n3n2)cc1,inactive: 111%
18,CCOC(=O)c1c(-c2ccccc2)csc1NC(=O)c1nc(SCC)ncc1Cl,inactive: 97%
19,O=C(NCC1CC1)Nc1c[nH]c2ccccc2c1=O,inactive: 107%
20,CCOc1cc(/C=C(\C#N)C(=O)Nc2ccc(OC)cc2)ccc1OCc1cc(=O)n2nc(CC)sc2n1,inactive: 84%
21,Cc1ccc2nc(CSc3nnc(NC(=O)c4ccc(C(C)(C)C)cc4)s3)cc(=O)n2c1,inactive: 55%
22,CC(=O)Nc1ccc(NC(=O)c2ncoc2-c2ccco2)cc1,inactive: 82%
23,COCCNC(=S)N1CCCN(c2nc3cc(C)ccc3cc2C#N)CC1,inactive: 109%

row,SMILES,survival
1,CCCCCNC(=O)C1CCC(Cn2c(=O)c3sccc3n(CC)c2=O)CC1 (stereo not given),inactive: 22%
2,CCc1cccc(C)c1NC(=O)CN1C(=O)c2cccc3cccc1c23,inactive: 66%
3,Cc1ccc(CN2C(=O)C3(c4ccccc42)N(c2ccc(C)c(Cl)c2)C(=O)CS3(=O)=O)cc1 (stereo not given),inactive: 71%
4,COc1ccc(NC(=O)CSc2cn(CCNC(=O)c3ccc(OC)cc3)c3ccccc23)cc1,inactive: 88%
5,CCc1nc2sc3c(N4CCCCC4)ncnc3c2c2c1CCCC2,inactive: 136%
6,COc1cccc(/C=C(\C#N)C(=O)Nc2ccc(NC(C)=O)cc2)c1OC,inactive: 80%
7,O=C(CCC1N=C2c3ccccc3N=C(SCc3cccc(Cl)c3)N2C1=O)NCCc1ccccc1 (stereo not given),inactive: 71%
8,COc1ccc(NC(=O)CCS(=O)(=O)c2ccc3c(c2)n(C)c(=O)c(=O)n3C)cc1Cl,inactive: 89%
9,Cc1oc(-c2cccc(Br)c2)nc1Cn1c(SCc2cccc(F)c2)nc2cccnc21,inactive: 69%
10,CCC(C)[C@H](N)c1nnc(SCc2ccc(Cl)c(Cl)c2)o1 (stereo not given in full),inactive: 46%
11,CCC(C)(C)n1nnnc1C(c1ccc(Cl)cc1)N1CCN(c2nc3ccccc3s2)CC1 (stereo not given),inactive: 108%
12,COc1ccc(Br)cc1CNC(=O)CSc1n[nH]c(-c2ccccc2)n1,inactive: 69%
13,CC1=C(C(=O)Nc2ccccc2)C(c2ccc(O)cc2)n2nc(-c3ccc(Cl)cc3)nc2N1 (stereo not given),inactive: 82%
14,CCn1c(CN2CCCCC2)nc2cc(NC(=O)COc3ccc(C(C)(C)C)cc3)ccc21,inactive: 97%
15,Cc1oc2ccc(O)c(CN3CCC(C)CC3)c2c1C(=O)Nc1ccccc1,inactive: 87%
16,Cc1ccc(S(=O)(=O)NCCSc2nnnn2-c2ccccc2)cc1,inactive: 96%
17,COc1ccc2c(c1)NC(c1ccc(Cl)cc1)=NC(c1cccs1)=N2,inactive: 49%
18,CC(C)CC1CC(C)(C(=O)CSc2n[nH]c(-c3ccccc3)n2)OC1=O (stereo not given),inactive: 123%
19,CCCN1C(=O)C(Cc2nc3ccccc3c(=O)n2CC)c2cc(Br)ccc21 (stereo not given),inactive: 38%
20,Cc1ccc2[nH]cc(C(=O)N3CCCCC3)c(=O)c2c1,inactive: 94%
21,Cc1sc(NC(=O)Nc2ccccc2)c(C(N)=O)c1C,inactive: 123%

# Reference: PubChem BioAssay AID463173 (ICCB-Longwood Screening Facility, Harvard Medical School, 2010)
